Results: publication PMC9607282 (Pharmaceutics, 2022)

Key:
[1] = Pharmacokinetics in plasma and PELF of healthy pigs after intramuscular injection; conditions: for AUC(0-t) / Cmax / MRT last / Tmax: pig, in vivo, im, n = 6; for AUC(0-t): AUC 24h; for MRT last: MRT 24h
Description: (§1) Twenty-four pigs were randomly divided into 4 groups with 3 healthy groups and 1 infected group. […] The infected group was infected with G. parasuis H78 for 3 days.
(§2) Add 3 mL of a mixture of dichloromethane and acetonitrile, and vortex centrifuge for 5 min at 10,000 rpm for 10 min. Remove the supernatant into a 10 mL centrifuge tube. Add 3 mL of dichloromethane and acetonitrile to the residue. Extract once again as described above. Combine the supernatant twice, and dissolve the residue with 1 mL of the initial mobile phase. Vortex to mix. Add 1 mL of n-hexane, remove the n-hexane layer (upper layer) to achieve the purpose of degreasing, and then use a 0.22-μm filter membrane to obtain a sample purification solution.
(§3) A C18 reverse phase column (250 mm × 4.6 mm, i.d., 5 µm, Agilent, Santa Clara, CA, USA) was used for HPLC, which was executed at a detection wavelength of 270 nm at 25 °C. The mobile phase comprised 0.1% trifluoroacetic acid (phase A) and 100% methanol (phase C) with a mobile phase flow rate of 1 mL/min.
(§4) The urea dilution method was used to determine the volume of PELF as described previously. The concentration of urea and PELF were determined by the urease-glutamate dehydrogenase enzymatic method with an automatic biochemical analyzer (SYNCHRON CX4 PRO; Beckman, Brea, CA, USA) at the National Reference Laboratory of Veterinary Drug Residues (Wuhan, China).

[2] = Pharmacokinetics in plasma and PELF of pigs infected with G. parasuis H78 after intramuscular injection; conditions: pig, in vivo, im; for AUC(0-t): AUC 24h; for AUC(0-t) / Cmax / MRT last / Tmax: infected group, ADP/SMZ injection 5/25 mg/kg b.w. i.m., n = 6; for MRT last: MRT 24h
Description: as §1, §2, §3, §4

[3] = system: G. parasuis H78; test: PK-PD integration, sigmoid Emax model on ex vivo time killing in PELF; assay type: cell-based, Glaesserella parasuis; conditions: ADP/SMZ injection 5/25 mg/kg b.w. i.m.
Description: The association between antimicrobial efficiency and the ex vivo PK-PD parameters of AUC0−24h/MIC ratios was simulated by using the model of Emax inhibitory Sigmoid.

[4] = PELF, healthy group, ADP/SMZ injection 5/25 mg/kg b.w. i.m.
[5] = PELF, healthy pigs, single drug i.m.: ADP 5 mg/kg b.w., SMZ 25 mg/kg b.w.
[6] = plasma, healthy group, ADP/SMZ injection 5/25 mg/kg b.w. i.m.
[7] = plasma, healthy pigs, single drug i.m.: ADP 5 mg/kg b.w., SMZ 25 mg/kg b.w.

Question: With `Cc1cc(NS(=O)(=O)c2ccc(N)cc2)no1` [SMZ, Sulfamethoxazole, reference compound] as the molecule, how does the “concentration in PELF after 36 h” value ([1]; LOD 0.05 µg/mL, HPLC) read?
Answer: The value was “below LOD”.

Question: What about the “concentration in plasma after 24 h” value ([1]; LOD 0.05 µg/mL, HPLC) of the same molecule?
Answer: The value was “below LOD”.

Question: And the AUC(0-t) [1, 4]?
Answer: Its AUC(0-t) is 163 ± 12.5 µg·h/mL.

Question: What about the AUC(0-t) [1, 5] of the same molecule?
Answer: The AUC(0-t) was 199 ± 10.1 µg·h/mL.

Question: What about the AUC(0-t) [1, 6] of the same molecule?
Answer: The AUC(0-t) was 121 ± 10.2 µg·h/mL.

Question: What about the AUC(0-t) [1, 7] of the same molecule?
Answer: The AUC(0-t) was 103 ± 8.25 µg·h/mL.

Question: And the Cmax [1, 4]?
Answer: The Cmax was 25400 ± 2510 ng/mL.

Question: And the Cmax [1, 5]?
Answer: The Cmax was 23400 ± 2580 ng/mL.

Question: What about the Cmax [1, 6] of the same molecule?
Answer: Its Cmax is 15700 ± 1740 ng/mL.

Question: What about the Cmax [1, 7] of the same molecule?
Answer: Its Cmax is 12600 ± 1320 ng/mL.

Question: What about the MRT last [1, 4] of the same molecule?
Answer: Its MRT last is 7.78 ± 0.17 h.

Question: And the MRT last [1, 5]?
Answer: Its MRT last is 6.42 ± 0.15 h.

Question: What about the MRT last [1, 6] of the same molecule?
Answer: Its MRT last is 6.55 ± 0.12 h.

Question: And the MRT last [1, 7]?
Answer: The MRT last was 6.13 ± 0.12 h.

Question: And the Tmax [1, 4]?
Answer: Its Tmax is 2.04 ± 0.08 h.

Question: What about the Tmax [1, 5] of the same molecule?
Answer: The Tmax was 2 h.

Question: And the Tmax [1, 6]?
Answer: The Tmax was 2 h.

Question: And the Tmax [1, 7]?
Answer: Its Tmax is 3 h.

Question: And the “T 1/2λ” value [2]?
Answer: Its value is 8.29 ± 0.81 h.

Question: And the AUC(0-t) ([2]; PELF)?
Answer: Its AUC(0-t) is 166 ± 12.7 µg·h/mL.

Question: What about the AUC(0-t) ([2]; plasma) of the same molecule?
Answer: The AUC(0-t) was 124 ± 7.11 µg·h/mL.

Question: What about the Cmax ([2]; PELF) of the same molecule?
Answer: The Cmax was 26400 ± 2040 ng/mL.

Question: And the Cmax ([2]; plasma)?
Answer: The Cmax was 16000 ± 1520 ng/mL.

Question: And the MRT last ([2]; PELF)?
Answer: The MRT last was 7.74 ± 0.23 h.

Question: And the MRT last ([2]; plasma)?
Answer: The MRT last was 6.48 ± 0.15 h.

Question: And the Tmax ([2]; PELF)?
Answer: Its Tmax is 2.07 ± 0.03 h.

Question: And the Tmax ([2]; plasma)?
Answer: Its Tmax is 2 h.

Question: What about the “(AUC24h/MIC)ex (E = 0)” value ([3]; healthy group) of the same molecule?
Answer: The value was 18.23 h.

Question: What about the “(AUC24h/MIC)ex (E = −3)” value ([3]; healthy group) of the same molecule?
Answer: The value was 64.88 h.

Question: What about the “(AUC24h/MIC)ex (E = −4)” value ([3]; healthy group) of the same molecule?
Answer: The value was 161.81 h.

Question: What about the “EC 50 (AUC0−24h/MIC giving 50% of Emax)” value ([3]; healthy group) of the same molecule?
Answer: Its value is 27.64 h.

Question: What about the “(AUC24h/MIC)ex (E = 0)” value ([3]; infected group) of the same molecule?
Answer: Its value is 17.81 h.

Question: What about the “(AUC24h/MIC)ex (E = −3)” value ([3]; infected group) of the same molecule?
Answer: Its value is 62.04 h.

Question: And the “(AUC24h/MIC)ex (E = −4)” value ([3]; infected group)?
Answer: The value was 137.28 h.

Question: And the “EC 50 (AUC0−24h/MIC giving 50% of Emax)” value ([3]; infected group)?
Answer: Its value is 27.43 h.
